{"source": "PubChem BioAssay AID760", "about": "(NMMLSC, 2007)", "note": "About 360 (0.19%) of roughly 190,000 compounds were called active. This list was built around the results that the source calls inconclusive (neither active nor inactive); the mix of calls is not that of the screen.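 Rule for the calls: active = GTP binding activity at least 20 points away from 100%, either lowered or raised; inconclusive = signal likely due to the compound's own green fluorescence; inactive = the rest.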"}
{"molecular_target": "Ras-related protein Rab-2A (Canis lupus familiaris) (UniProt P61105)", "experiment": "Rab2 wt fluorescent GTP binding changes, either direction – biochemical, dog, bead-based flow cytometry, multiplex, primary screen (AID 760);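 note: 0% = beads with excess unlabeled GTP and 100% = no-compound control corrected for plate trend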", "conditions": "GST-Rab2 wt beads, Bodipy-GTP binding, at 10 µM"}
{"smiles": "O=[N+]([O-])c1ccccc1OCc1nc(-c2cccs2)no1", "GTP binding activity": "inconclusive: 94%"}
{"smiles": "CCC(C)NC(=O)COC(=O)c1oc2ccccc2c1CSc1ccc(Cl)cc1", "note": "(stereo unspecified)", "GTP binding activity": "inactive: 99%"}
{"smiles": "CC(C)Oc1ccc(/C=N/NC(=O)c2ccc(N(Cc3ccccc3)S(C)(=O)=O)cc2)cc1", "GTP binding activity": "active: 74%"}
{"smiles": "Cc1ccnc(SCC(=O)n2c3c(c4ccccc42)CC(C)CC3)n1", "note": "(stereo unspecified)", "GTP binding activity": "inconclusive: 103%"}
{"smiles": "CCCn1c(N)c(Sc2ccc([N+](=O)[O-])cc2)c(=O)n(CCC)c1=O", "GTP binding activity": "inconclusive: 94%"}
{"smiles": "O=C(Oc1cccnc1)c1cc2ccccc2oc1=O", "GTP binding activity": "inconclusive: 89%"}
{"smiles": "CC(=O)c1cn(CC(=O)Nc2cccc(C)c2C)c2ccccc12", "GTP binding activity": "inconclusive: 95%"}
{"smiles": "CCOC(=O)C1CCN(C(=O)Cc2cccs2)CC1", "GTP binding activity": "inconclusive: 93%"}
{"smiles": "Nc1ccc2c(c1)Oc1ccccc1C=C2", "GTP binding activity": "inconclusive: 95%"}
{"smiles": "COc1ccc(Cl)cc1NC(=S)NCCN1CCOCC1", "GTP binding activity": "inconclusive: 98%"}
{"smiles": "CC(C)n1c(O)c(N=NC(=O)c2ccccc2NS(=O)(=O)c2cccs2)c2ccccc21", "GTP binding activity": "inconclusive: 80%"}
{"smiles": "O=C(COC(=O)c1cncc(Br)c1)NCc1ccco1", "GTP binding activity": "inconclusive: 108%"}
{"smiles": "COc1cccc(N/C(SCc2ccccc2F)=C(/C#N)C(=O)NCc2cccs2)c1", "GTP binding activity": "inactive: 101%"}
{"smiles": "CCCn1nnc(NC(=O)/C=C/c2cc(Br)ccc2OC)n1", "GTP binding activity": "inconclusive: 92%"}
{"smiles": "O=c1c(Cc2ccc(F)cc2)c(O)ccn1Cc1ccc(F)cc1", "GTP binding activity": "inconclusive: 95%"}
{"smiles": "O=C(NCc1cccs1)c1cccn2c(=O)c3sccc3nc12", "GTP binding activity": "active: 63%"}
{"smiles": "CC1CC(C)CN(C(=O)Cn2c(=O)n(CCCCC(=O)NCc3ccco3)c(=O)c3ccccc32)C1", "note": "(stereo unspecified)", "GTP binding activity": "inconclusive: 103%"}
{"smiles": "CC(=O)Nc1ccc(S(=O)(=O)Nc2nccc(/C=C/c3ccccc3F)n2)cc1", "GTP binding activity": "inactive: 99%"}
{"smiles": "CC(=O)c1c(C)[nH]c(C(=O)NCc2ccco2)c1C", "GTP binding activity": "inconclusive: 91%"}
{"smiles": "O=C(CSc1ncnc2c1oc1ccccc12)Nc1ccccc1F", "GTP binding activity": "inconclusive: 96%"}
{"smiles": "O=C(NC1(C(F)(F)F)NC(=O)N(Cc2ccco2)C1=O)c1cccnc1", "note": "(stereo unspecified)", "GTP binding activity": "inconclusive: 100%"}
{"smiles": "N=C1S/C(=C\\c2ccco2)C(=O)N1c1ccc2c(c1)OCO2", "GTP binding activity": "inconclusive: 90%"}
{"smiles": "COCC(C)N1CC(O)=C(c2nc(-c3ccc(Cl)cc3)cs2)C1=N", "note": "(stereo unspecified)", "GTP binding activity": "inconclusive: 95%"}
{"smiles": "Cc1ccc(C2=CSC3=NS(=O)(=O)CCN23)cc1", "GTP binding activity": "inconclusive: 94%"}
{"smiles": "Cc1cccc(S(=O)(=O)c2c(N)n(/N=C/c3cccnc3)c3nc4ccccc4nc23)c1", "GTP binding activity": "inconclusive: 66%"}
{"smiles": "CCOC(=O)c1c(C)[nH]c(C(=O)/C(C#N)=C/c2ccc(OC(F)F)c(OC)c2)c1C", "GTP binding activity": "inconclusive: 108%"}
{"smiles": "Cc1occc1-c1nnc(SCC(=O)Nc2nc(-c3ccccc3)cs2)o1", "GTP binding activity": "inconclusive: 102%"}
{"smiles": "CCCc1ccc(OCC(=O)NNC(=O)c2cccnc2)cc1", "GTP binding activity": "inactive: 98%"}
{"smiles": "CCCN1CNC(=S)N(c2ccccc2C)C1", "GTP binding activity": "inactive: 104%"}
{"smiles": "CCCCN(CCCC)c1nc2ccccc2nc1C(C#N)C(=O)NCCCOC", "note": "(stereo unspecified)", "GTP binding activity": "inconclusive: 110%"}
{"smiles": "S=C(NCCCn1ccnc1)Nc1ccc(Cl)cc1Cl", "GTP binding activity": "inconclusive: 94%"}
{"smiles": "CC1=CCC(Cc2nc3ccccc3o2)C1(C)C", "note": "(stereo unspecified)", "GTP binding activity": "inconclusive: 92%"}
{"smiles": "CC(=O)c1cccc(NC(=S)NNC(=O)c2ccco2)c1", "GTP binding activity": "inconclusive: 87%"}
{"smiles": "CC1=C(C(=O)N2CCOCC2)C(c2ccc(OC(F)F)cc2)NC(=S)N1c1ccccc1", "note": "(stereo unspecified)", "GTP binding activity": "inactive: 96%"}
{"smiles": "COc1ccc(S(=O)(=O)N2CCC(C(=O)N3CCc4ccccc4C3)CC2)cc1", "GTP binding activity": "inconclusive: 103%"}
{"smiles": "CCCn1c2c(c(O)c(C(=O)Nc3ccccc3)c1=O)CCCC2", "GTP binding activity": "inconclusive: 103%"}
{"smiles": "COc1nc(-c2ccccc2)ccc1-c1noc(COc2ccccc2)n1", "GTP binding activity": "inconclusive: 87%"}
{"smiles": "O=C1N(c2ccccc2)C(c2ccc(Cl)cc2)N2CCCN12", "note": "(stereo unspecified)", "GTP binding activity": "inactive: 94%"}
{"smiles": "N=c1c2c3c(sc2ncn1CCCO)CCCC3", "GTP binding activity": "inconclusive: 105%"}
{"smiles": "Cc1cc(C)c(S(=O)(=O)Nc2cccc(S(=O)(=O)NC3=NCCC3)c2)c(C)c1", "GTP binding activity": "inactive: 96%"}
{"smiles": "CC(C)CSc1nsc(N)n1", "GTP binding activity": "inconclusive: 104%"}
{"smiles": "O=C(Cn1cccc1C(=O)c1ccccc1)NCc1cccc(Cl)c1", "GTP binding activity": "inactive: 94%"}
{"smiles": "Cc1ccc(-n2c(SCC(N)=O)nnc2-c2cccnc2)c(C)c1", "GTP binding activity": "inactive: 104%"}
{"smiles": "CNS(=O)(=O)c1cc2c3c(cccc3c1)C(=O)NC2=O", "GTP binding activity": "inconclusive: 92%"}
{"smiles": "Cc1nnc(SCC(=O)NCc2ccccc2)[nH]c1=O", "GTP binding activity": "inconclusive: 100%"}
{"smiles": "CCc1nnc(NC(=O)CSc2nc(-c3ccccc3)cc(-c3ccc(OC)cc3)c2C#N)s1", "GTP binding activity": "inactive: 97%"}
{"smiles": "O=C(CSCc1c(Cl)cccc1Cl)N1CCOCC1", "GTP binding activity": "inactive: 98%"}
{"smiles": "CCCCOC(=O)C1CCCC(C)N1", "note": "(stereo unspecified)", "GTP binding activity": "inconclusive: 105%"}
{"smiles": "Cc1cccc(-c2nnc3n2N=C(c2ccccc2)CS3)c1", "GTP binding activity": "inactive: 94%"}
{"smiles": "CCOC(=O)c1sc(NC(=O)CSc2nnc(Cc3ccccc3)o2)c(C#N)c1C", "GTP binding activity": "active: 78%"}
{"smiles": "Cc1cccn2c(=O)c(C=O)c(N3CCN(c4ccc(F)cc4)CC3)nc12", "GTP binding activity": "inactive: 95%"}
{"smiles": "N#C/C(=N\\Nc1ccc(S(=O)(=O)N2CCc3ccccc32)cc1)C(N)=S", "GTP binding activity": "inconclusive: 90%"}
{"smiles": "Cc1c(Cl)cccc1N=Cc1ccc([N+](=O)[O-])s1", "GTP binding activity": "inconclusive: 107%"}
{"smiles": "COCC(C)n1c(=O)sc2ccccc2c1=O", "note": "(stereo unspecified)", "GTP binding activity": "inactive: 97%"}
{"smiles": "COc1ccc(Cl)cc1NC(=O)CN(C1CCCCC1)S(C)(=O)=O", "GTP binding activity": "inconclusive: 101%"}
{"smiles": "COc1ccc(-c2nnc(SCC(=O)NNC(=O)Cc3ccccc3)n2C)cc1OC", "GTP binding activity": "inconclusive: 101%"}
{"smiles": "CCCCn1c(N)c(N(CC)C(=O)C(c2ccccc2)c2ccccc2)c(=O)[nH]c1=O", "GTP binding activity": "inconclusive: 174%"}
{"smiles": "O=C(CSc1nnc(-c2ccccc2)c(-c2ccccc2)n1)Nc1ncc(Cl)cc1Cl", "GTP binding activity": "inconclusive: 111%"}
{"smiles": "O=C(CSc1ccc2nnc(-c3ccccn3)n2n1)Nc1ccc2c(c1)OCO2", "GTP binding activity": "inconclusive: 74%"}
{"smiles": "COc1cc(/C=C2/C(=N)N3C=CSC3=NC2=O)ccc1OCCCOc1ccccc1C", "GTP binding activity": "inconclusive: 107%"}
{"smiles": "CCOC(=O)NC(Nc1ccc(S(N)(=O)=O)cc1)(C(=O)OCC)C(F)(F)F", "note": "(stereo unspecified)", "GTP binding activity": "inconclusive: 102%"}
{"smiles": "CCCNS(=O)(=O)c1ccc2c(c1)CCCN2C(C)=O", "GTP binding activity": "inconclusive: 100%"}
{"smiles": "Cc1cccc2c(CCNC(=O)c3ccc([N+](=O)[O-])cc3)c[nH]c12", "GTP binding activity": "inconclusive: 96%"}
{"smiles": "CCC(CO)NCc1ccccc1OC(C)C", "note": "(stereo unspecified)", "GTP binding activity": "inactive: 98%"}
{"smiles": "Cc1ccc(C(=O)C(OC(=O)CCC(=O)Nc2cccc(C)c2)c2ccccc2)cc1", "note": "(stereo unspecified)", "GTP binding activity": "inconclusive: 106%"}
{"smiles": "Cc1ccccc1C(=O)Nc1nc(=S)ss1", "GTP binding activity": "inconclusive: 89%"}
{"smiles": "CCCc1cc2c(cc1NC(=O)c1ccco1)OCO2", "GTP binding activity": "inactive: 99%"}
{"smiles": "O=C(Cn1cnc2cc([N+](=O)[O-])ccc2c1=O)NCc1ccc(Cl)cc1", "GTP binding activity": "inactive: 80%"}
{"smiles": "O=S(=O)(/N=C/N1CCOCC1)c1ccc(Cl)cc1", "GTP binding activity": "inconclusive: 96%"}
{"smiles": "CCOc1[nH]n(-c2ccc(Cl)cc2)c(=O)c1C=Nc1ccc(O)cc1", "GTP binding activity": "inconclusive: 104%"}
{"smiles": "CCOC(=O)C1CCN(C(=O)c2ccco2)CC1", "GTP binding activity": "inconclusive: 102%"}
{"smiles": "COCCNC(=O)c1cc(C(=O)CC(C)C)c[nH]1", "GTP binding activity": "inactive: 98%"}
{"smiles": "CCOC(=O)Cc1nnc(NC(=O)C(CC)Sc2nnc3c4ccccc4n(C)c3n2)s1", "note": "(stereo unspecified)", "GTP binding activity": "inconclusive: 96%"}
{"smiles": "Cc1ccc(/C=C(\\CCC(=O)O)c2nc3ccccc3s2)cc1[N+](=O)[O-]", "GTP binding activity": "active: 79%"}
{"smiles": "Cn1c(N=Nc2ccc(N3CCOCC3)cc2)[n+](C)c2ccccc21", "GTP binding activity": "inconclusive: 92%"}
{"smiles": "CC12CCC(C(=O)NCc3ccc4c(c3)OCO4)(OC1=O)C2(C)C", "note": "(stereo unspecified)", "GTP binding activity": "inactive: 101%"}
{"smiles": "Cn1c(=O)cc(SCC(=O)N2CCN(C(=O)c3ccco3)CC2)c2ccccc21", "GTP binding activity": "inconclusive: 105%"}
{"smiles": "Cc1cccc(Nc2nc(NCc3ccco3)c3ccccc3n2)c1", "GTP binding activity": "active: 72%"}
{"smiles": "NNC(=O)c1nc[nH]c1C(=O)Nc1ccccc1[N+](=O)[O-]", "GTP binding activity": "inconclusive: 86%"}
{"smiles": "CCOc1ccc(-n2c(-c3ccco3)n[nH]c2=S)cc1", "GTP binding activity": "inconclusive: 80%"}
{"smiles": "N#C/C(=C(/O)COc1ccc(Br)cc1)c1nnc2n1CCCCC2", "GTP binding activity": "active: 77%"}
{"smiles": "Cc1cc(C(=O)CN2C(=O)NC3(CCC(C)CC3)C2=O)c(C)n1C", "note": "(stereo unspecified)", "GTP binding activity": "inconclusive: 97%"}
{"smiles": "COc1ccc(C(=O)OCCNC(=O)c2ccncc2)cc1OC", "GTP binding activity": "inactive: 96%"}
{"smiles": "Cc1cccc(N2CCN(C(=O)/C=C/c3cccs3)CC2C)c1", "note": "(stereo unspecified)", "GTP binding activity": "inconclusive: 88%"}
{"smiles": "CCCN1C(=O)C(Cc2nc3ccccc3c(=O)n2C)c2ccccc21", "note": "(stereo unspecified)", "GTP binding activity": "inconclusive: 99%"}
{"smiles": "COc1ccc(-c2nnc3sc(-c4ccco4)nn23)cc1OC", "GTP binding activity": "inactive: 99%"}
{"smiles": "CCOC(=O)NC(=O)CSc1ccccn1", "GTP binding activity": "inconclusive: 94%"}
{"smiles": "Cc1cc(NC(=O)CCC(=O)N(c2ccc(F)cc2)C(C(=O)NC2CCCC2)c2ccc(C)o2)no1", "note": "(stereo unspecified)", "GTP binding activity": "inactive: 99%"}
{"smiles": "O=C(CCN1CCCC1Cc1ccccc1)c1ccc2c(c1)OCCO2", "note": "(stereo unspecified)", "GTP binding activity": "inactive: 84%"}
{"smiles": "Cc1ccccc1CC1(CO)CCCN(Cc2ccc3c(c2)OCCO3)C1", "note": "(stereo unspecified)", "GTP binding activity": "inactive: 99%"}
{"smiles": "O=C(NCCCn1ccnc1)c1cc2c(ccc3ccccc32)o1", "GTP binding activity": "inactive: 98%"}
{"smiles": "O=c1c2ccccc2nnn1CSc1ccc2c(c1)OCCO2", "GTP binding activity": "inconclusive: 104%"}
{"smiles": "CCOc1ccccc1NC(=O)CSc1nnc2ccc(-c3ccncc3)nn12", "GTP binding activity": "inactive: 99%"}
{"smiles": "CN(C)c1ccc2c3c(ccc(N(C)C)c13)COC2", "GTP binding activity": "inactive: 95%"}
{"smiles": "COc1cccc(/C=N/N=C(\\N)c2nonc2N)c1O", "GTP binding activity": "inactive: 82%"}
{"smiles": "Cc1ccc(/C=N/NC(=O)c2ccc(C(=O)N/N=C/c3ccc(C)s3)o2)s1", "GTP binding activity": "inconclusive: 92%"}
